Some of the results follow.

In the experiment the test system is PfAP2-HC AP2 domain (GST-tagged). As to the kind of experiment: gcPBM binding intensity (ln(normalized median fluorescence intensity)); higher = stronger DNA binding. In short, it runs like this: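 GST-tagged P. falciparum DNA-binding domains produced in E. coli were incubated for 1 h on an Agilent 4 × 180k array of primer-extended double-stranded 36-bp intergenic genomic probes with negative controls. Binding intensity is the highest Masliner-normalised natural-log median intensity across replicate spots of either probe orientation, with bound protein detected by Alexa488 anti-GST antibody at 488 nm.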
For “ATTATGTATACATAAACACACATATTTATAAAAAAA [CACACA_site6261]”, the “gcPBM binding intensity (ln)” value turned out to be 9.82.
With “ATATATTTATATATATGTACATATTATGTTAAGAAA [XGTACX_site1111]”, the “gcPBM binding intensity (ln)” value was 9.69.
Under “TTCCTTATTATTATTTTACACACGTCCTAATAAGAG [CACACA_site8364]” stands 9.88; under “GCTTGTACATTTTTAAAAAATGACTTCGAAAGGAAT [CACACA_negctrl_site453]”, 9.41.
For “TTTATGCATAGAGAAACATGCAAGAAAGATGCAAAA [TGCATGCA_site726]” the value was 9.63; for “ATACTCACGTGACACACACACAATATAAATAAATAT [CACACA_site7862]”, 10.6.
In the case of “TGTATATATATCTCAGTGCATTGCAAATTAAAAATT [GTGCAC_site9646]”, the “gcPBM binding intensity (ln)” value was 9.6.
For “TATAATAATCTAATCTGTAGTTTTTTTTTTTTTTTT [CACACA_negctrl_site1206]” the value was 9.37.
Regarding “GGCTTTTTTTAATATGCACACATATATTTTATATAT [CACACA_site8647]”, the “gcPBM binding intensity (ln)” value was 10.
Regarding “AAAAAAAAACAGAAAACACACAAATTATCTTATAAT [CACACA_site4326]”, the “gcPBM binding intensity (ln)” value was found to be 10.
Under “TTTCTAAATAATTATAATGAATCTGCAAACAAGCAT [XGTACX_negctrl_site391]” stands 9.05.
Consider “ATAAAAATAAACATACGTACTTACACGAATATACAT [XGTACX_site5989]”, for which the “gcPBM binding intensity (ln)” value was 9.77.
With “CTTGAAAAAATAAAAACACACAATGTGTTTTTGAAT [CACACA_site3283]”, the “gcPBM binding intensity (ln)” value turned out to be 9.68.
For the sequence “TTAGATTTAAATATCATACACACTTTATATATAATA [CACACA_site959]”, the “gcPBM binding intensity (ln)” value is 9.57.
As to “ATATTACTATATTATTGTACGTTAAAAAAAAAAAAT [XGTACX_site8734]”, the “gcPBM binding intensity (ln)” value is 9.55.
For “AATAAATAAATAAATAAATATATATATATATATATA [GTGCAC_negctrl_site224]” the value was 9.58; for “TTATATTAAAAAAGATGTACGTTTAGGAAAAATATA [XGTACX_site7456]”, 9.34; for “AAATTCACAATGTTTGGTACACATAAAAAAAAAAGA [XGTACX_site7109]”, 9.66.
Regarding “AAAAATTTTTTTTTTTTTTTAAATAATAAAAATGAA [CACACA_negctrl_site1435]”, the “gcPBM binding intensity (ln)” value was determined as 9.21.
For the sequence TATTATTATTTTATGGTGCAAAAAAAAAAAAAAAAA, the “gcPBM binding intensity (ln)” value came out at 8.83.
In the case of “AACATACGACAATACGCACACATATCTGTACATATT [CACACA_site5115]”, the “gcPBM binding intensity (ln)” value worked out at 10.2.
As to “TTTATATATTTTGTCGTGCACATTTGGAAAATTACA [GTGCAC_site9776]”, the “gcPBM binding intensity (ln)” value was 9.59.
For the sequence “TATATATTTATTTATAGTACACTATTTATGAAAACC [XGTACX_site3062]”, the “gcPBM binding intensity (ln)” value was 9.43.
For “CATTATTATTAACATACACACGTGTTATATACCCCC [CACACA_site9365]” the value was 10.1; for “TAACATAAATTTAGGAGTACACTTTTTATACATACA [XGTACX_site4066]”, 9.62.
For the sequence “TATCACTATAGACAAGCATGCATATGTACTAATATC [TGCATGCA_site1020]”, the “gcPBM binding intensity (ln)” value came to 9.7.
As to TTTATATTTATTGTTGTGCACAGAACCATATTCGTT, the “gcPBM binding intensity (ln)” value was 9.9.
For the sequence “AATAAAATGGAATACGGTACACATAATCCTAAAATG [XGTACX_site926]”, the “gcPBM binding intensity (ln)” value stood at 9.81.
Under “ATATTATAAAATAAAAGTACACAATTATATATATAT [XGTACX_site8812]” stands 9.75.
For “TATTTTTAAAATTAAATGAATAAATAAATAAATATA [XGTACX_negctrl_site553]”, the “gcPBM binding intensity (ln)” value came out at 9.39.
For “ATATATATCGGACACACACACATGTTTTAAAACTAT [CACACA_site4218]” the value was 10.8; for “CTTTTATTCAAAAGATGTACTTAAATATATATCTAA [XGTACX_site4326]”, 9.39; for “TGCAGTCTGGAGAAACGTACACAGTATCTGGTAACA [XGTACX_site2014]”, 9.48.
Consider “ATGTGTATAATTAAATGTACATATATATATATATAT [XGTACX_site829]”, for which the “gcPBM binding intensity (ln)” value worked out at 10.2.
Take “ATTTGAAATTGGTAGACACACAATAAAATATCAAAA [CACACA_site447]”: the “gcPBM binding intensity (ln)” value worked out at 9.7.
On to “AAAAAGTTATTATGAACACACATTTATTATAGTCAT [CACACA_site6838]”, for which the “gcPBM binding intensity (ln)” value was 9.74.
For the sequence “CATATAAATATTTGTGCACACAATTATTAATAATTA [CACACA_site3884]”, the “gcPBM binding intensity (ln)” value stood at 9.83.
For “CACATTATGTATCATACACACAAATAAATATATAAT [CACACA_site4505]” the value was 9.84; for “ATATTATTAATATATTGTACTTTTTTTTTTTTATTT [XGTACX_site496]”, 9.64.
As for “ATATGTATTTAATTCACACAAAAATATGTTCATGAA [CACACA_site5223]”, the “gcPBM binding intensity (ln)” value stood at 9.49.
For “AATTTAATTATGGTAACACACAATAAAAAAAAATCT [CACACA_site568]” the value was 9.71.
For “TTTTTTTTTTTCTTTGCACACAGATAACTTGAAATT [CACACA_site2184]” the value was 9.79; for “ATATTTTATTTTCCATGTACACAAAAAAAAAAAAAA [XGTACX_site8327]”, 9.27.
Regarding “AAGAAAATAAAGGATATGAAAAATAAAAAAAAGGAG [TGCATGCA_negctrl_site265]”, the “gcPBM binding intensity (ln)” value came to 9.81.

The record behind these values is the supplement of paper PMC11417369.
